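96-well plates; 48 h exposure; 5 concentrations. Endpoints by linear interpolation between flanking doses. Not reached: highest tested concentration assigned. GI50 marks 50% less growth. The concentration for full growth arrest is given as TGI.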 Bridge positions count the residues as written; N and C are the ends. Square brackets hold non-standard residues; d marks the D form. Peptide text beside a SMILES is read from it. I, II: the chains in the order shown. * marks the point of attachment. Quinoxaline2carbonyl = O=C(c1cnc2ccccc2n1)*; NMeV = CN[CH](C(=O)O)C(C)C; NMeC = CN[CH](CS)C(=O)O
The molecules below were run on NCI-H322M lung (assay: NCI tumour cell line growth inhibition, 48 h).

Compound	TGI	GI50
CN(C)CCC(/C=C/c1ccccc1)=N\Nc1ccc(Cl)cc1Cl	34.6 µM	
Fc1ccccc1C1SCc2nc3cc4ccccc4cc3n21 (centres undefined)	> 100 µM	
Cc1ccc(S(=O)OC2C3CC4CC(C3)CC2C4)cc1 (centres undefined)	> 100 µM	
Cc1cc(O)c(C(C)C)cc1C1(c2cc(C(C)C)c(O)cc2C)OC(=O)c2ccccc21	> 32.3 µM	
CCCCCCN(N)C(=O)CC#N	> 100 µM	
COc1ccc(C=O)c(NC(=O)C(C)C)c1	> 100 µM	
CN(CCCNC(=O)c1nn(-c2ccc(Cl)cc2Cl)c2c1Cc1ccccc1-2)CCCNC(=O)c1nn(-c2ccc(Cl)cc2Cl)c2c1Cc1ccccc1-2	3.21 µM	
Brc1c(C#CCC2CCCCC2)ccc(C#CCC2CCCCC2)c1Br	> 100 µM	
Cc1ccc2c(=O)cc(-c3ccc(-c4ccccc4)s3)[nH]c2n1	> 100 µM	
COc1ccc(C(=O)N2c3ccccc3Sc3ccccc32)c(OC)c1	> 100 µM	0.501 µM
O=[As](O)(O)c1ccc(N=Nc2ccc(O)cc2)cc1	> 100 µM	
COc1ccc(-n2cnc3c(NC(CCSC)C(=O)O)ncnc32)cc1 (centres undefined)	> 100 µM	
CCOc1cc(NC(C)=O)ccc1C(=O)NN1C(=O)C(Cl)C1c1ccco1 (centres undefined)	30.4 µM	
Nc1ccc(-c2nc3ccccc3[nH]2)c2ccccc12	96.9 µM	6.17 µM
CCCc1ccc(NCc2cc(OC)c(OC)c(OC)c2)cc1	> 100 µM	
CCC1(COC(NC(=O)c2ccccc2)(C(F)(F)F)C(F)(F)F)COC1	> 100 µM	
CN1COc2c(n(C)c(=O)[nH]c2=O)C1	> 100 µM	
Brc1ccc(-c2cn3ccncc3n2)cc1	> 100 µM	
C/C(=C/CC[C@]1(CO)CC[C@]2(CO)[C@H](CC[C@@H]3[C@@]4(C)CC[C@H](OC5OCC(O)C(O)C5OC5OC(CO)C(O)C(O)C5O)C(C)(C)[C@@H]4CC[C@]32C)[C@H]1O)CO (some centres undefined)	> 100 µM	
Cc1cc(N(CCC#N)CCC#N)ccc1/C=C1N=C(/C=C\c2ccccc2)N(c2ccc(Cl)cc2)C\1=O	> 100 µM	
OC1(c2ccccc2)CSC2=Nc3ccccc3C3CCN1N23 (centres undefined)	60.3 µM	
N#C/C(=C\c1c[nH]c2ccccc12)C(=O)c1ccc(O)c(O)c1	> 100 µM	
Cn1cc(-c2nonc2-c2cn(C)c3ccccc23)c2ccccc21	> 100 µM	4.39 µM
Nc1ccccc1SCc1csc(-c2ccc(Cl)cc2)n1	> 100 µM	

Compound	TGI	GI50
Cc1c(C2=C(c3cn(C)c4ccccc34)C(=O)NC2=O)c2ccccc2n1C	> 25 µM	17.7 µM
O=C(Oc1cccnc1)c1ccsc1Nc1ccnc(C(F)(F)F)c1	25.4 µM	11.5 µM
CCN1C(=O)N(CC)C2C1NN=c1s/c(=C3\C(=O)N(CCc4ccccc4)c4ccccc43)c(=O)n12 (centres undefined)	> 26.5 µM	1.41 µM
O=[N+]([O-])c1cc(S(=O)(=O)Oc2ccccc2)ccc1Cl	4.22 µM	2.18 µM
CCOP(=O)(OCC)C(C)(CC)NC (centres undefined)	> 100 µM	
c1ccc2c3c([nH]c2c1)C1CCCN1CC3 (centres undefined)	> 10 µM	
CC(C)=C/C=C1/CS(=O)(=O)C=C1C	> 100 µM	
COc1ccc2c(c1)OC1=C(C(=O)OC1)C2c1cc(OC)c2c(c1)OCO2 (centres undefined)	> 100 µM	0.0714 µM
C[C@@H]1O[C@@H](OC[C@H]2O[C@@H](OCCc3ccc(O)c(O)c3)[C@H](O)[C@@H](O)[C@@H]2OC(=O)/C=C/c2ccc(O)c(O)c2)[C@H](O)[C@H](O)[C@H]1O	> 100 µM	> 100 µM
O=C(Cc1ccccc1)NN1C(=O)C(Cl)C1c1ccccc1O (centres undefined)	> 100 µM	
CCOc1nc(N)nc(C)c1N=Nc1ccc(Cl)cc1	> 100 µM	
COc1cc([C@@H]2c3cc(O)c(OC)cc3C=C(C(N)=O)[C@H]2C(N)=O)ccc1O	> 100 µM	
C[CH2][Pb]([CH2]C)([CH2]C)[O]C(=O)c1ccc2ccccc2n1	> 10 µM	> 10 µM
CC(C)(C)c1cc(C2COC(c3cc(C(C)(C)C)c(O)c(C(C)(C)C)c3)CO2)cc(C(C)(C)C)c1O (centres undefined)	> 100 µM	
Cn1c2ccccc2n2c(=O)c3c(c(C#N)c12)CCCC3	> 100 µM	
COc1ccc(C(Cl)=C(c2ccc(OCCN(C)C)cc2)c2ccc(OCCN(C)C)cc2)cc1	7.28 µM	
CC(=O)c1c(C(F)(F)F)n([O-])c2ccc(C)cc2[n+]1=O	> 73.5 µM	6.61 µM
CC1OC(O[C@H]2/C=C/C=C/C=C/C=C/C=C/C=C/C=C/[C@H](C)[C@@H](O)[C@@H](C)[C@H](C)OC(=O)CC(O)CC(O)CCC(O)C(O)CC(O)C[C@]3(O)C[C@H](O)C(C(=O)O)C(C2)O3)C(O)[C@H](N)C1O (some centres undefined)	8.42 µM	2.92 µM
COC(=O)C(C)(C)N=CN(C)C	> 100 µM	
CC(NC(C)(C)C)C(=O)c1cccc(Cl)c1 (centres undefined)	> 100 µM	
COc1ccc(N=C2C(=Nc3ccc(OC)cc3)N(c3ccccc3)C(=S)N2N=C=C2Sc3ccccc3N2C)cc1	> 100 µM	
CSC(=S)N/N=C(\C)c1cccc(C)n1	75.1 µM	
OC(c1ccc(-c2ccccc2)cc1)C(F)(F)c1nc2ccccc2o1 (centres undefined)	> 100 µM	
COc1ccc(CSc2ccccc2Cn2cccc2)cc1OC	> 100 µM	

Compound	TGI	GI50
COc1ccc2c(c1)CCN1CCc3cc(OC)c(OC)cc3CC21 (centres undefined)	> 100 µM	
CC1(C)C2CCC13CS(=O)(=O)N1O[C@]13C(=O)O2 (some centres undefined)	> 100 µM	
CC1NC(=O)C(NC(=O)c2cnc3ccccc3n2)COC(=O)C(C(C)C)N(C)C(=O)C2CSSCC(C(=O)N(C)C(C(C)C)C(=O)OCC(NC(=O)c3cnc4ccccc4n3)C(=O)NC(C)C(=O)N2C)N(C)C1=O (centres undefined) (I: Quinoxaline2carbonyl-SA[NMeC][NMeV] / II: Quinoxaline2carbonyl-SA[NMeC][NMeV]; ester I:1-II:C, I:C-II:1; disulfide I:3-II:3; configuration not given here)	1.67 µM	
Cc1ccc2nc(NC(=O)/C(Cc3nc4ccc(Cl)cc4[nH]c3=O)=N\NC(C)(C)C)sc2c1	> 100 µM	
CCCCCn1sc(=O)n(Cc2ccc(CNC(=O)OCc3ccc4cccc(O)c4n3)cc2)c1=O	17.5 µM	4.76 µM
N#Cc1ccc(N=Cc2c([O-])ccc3ccccc23)cc1.[C-]#[O+].[C-]#[O+].[Ir]	33 µM	15.7 µM
CCN(c1cccc(NC(=S)Nc2ccccc2N(CC)c2cc(-c3ccccc3)no2)c1)c1cc(-c2ccccc2)no1	> 100 µM	
C[C@@H]1O[C@@H](O[C@H]2CC[C@@]3(C)[C@H](CCC4[C@@H]3C(O)C[C@]3(C)[C@@H](c5ccc(=O)oc5)CC[C@]43O)C2)[C@H](O)[C@H](O)[C@H]1O (some centres undefined)	0.0145 µM	< 0.00325 µM
CCCCCCCCCCCCCP(=O)(O)NCC(N)=O	> 100 µM	
O=C([CH-]C(=O)c1ccccc1)c1ccccc1.O=C([CH-]C(=O)c1ccccc1)c1ccccc1.[OH-].[OH-].[Ti+4]	> 100 µM	> 100 µM
CC1OC(OC2C(OC(=O)[C@@H]3CC(C)(C)C[C@H]4C5=CC[C@@H]6[C@@]7(C)C[C@H](O)[C@H](OC8OC(CO)C(O)C(O)C8O)[C@@](C)(CO)[C@@H]7[C@H](O)C[C@@]6(C)[C@]5(C)CC[C@@]34C)OCC(O)C2O)C(O)C(O)C1O (some centres undefined)	> 7.5 µM	
COc1cc2nc(NCCCCCNC(=O)c3ccco3)nc(N)c2cc1OC	75.8 µM	
CCO/C=C1\N=C(c2ccccc2Br)OC1=O	> 100 µM	
CC(=O)OCC1OC(n2c(=O)[nH]c(=O)c3sccc32)C(Br)C1OC(C)=O (centres undefined)	> 100 µM	
CC1(C)CCC[C@]2(C)[C@@H](C=O)C(C=O)=CC[C@@H]12	> 100 µM	
O=c1onc2c3ccccc3ncn12	> 100 µM	
Cc1cc2c(c(C(=O)O)c1C)-c1cccc(F)c1C2=O	> 100 µM	
O=P1(Oc2ccccc2)C(c2ccccc2)C(c2ccccc2)=NN1c1ccccc1 (centres undefined)	62.3 µM	
O=C(CSC1=NCCN1)Nc1ccccc1	> 100 µM	
c1ccc(CSCCc2ccncc2)cc1	> 100 µM	
c1ccc(P(=Nc2ccccc2N=P(c2ccccc2)(c2ccccc2)c2ccccc2)(c2ccccc2)c2ccccc2)cc1	> 100 µM	
COC(=O)CC1NC(=O)C1C1(C)OCCO1 (centres undefined)	> 100 µM	
COc1cc(C(c2ccc3c(c2)OCO3)N2C(=O)CCC2C(=O)O)cc(OC)c1OC (centres undefined)	> 100 µM	
Cc1cc(N(CCC#N)CCC#N)ccc1/C=C1/N=C(c2ccccc2)N(N)C1=O	> 100 µM	

Compound	TGI	GI50
COCCOCOc1ccc(OCOCCOC)c2c1C(=O)c1ccccc1C2=O	> 100 µM	
O=C(O)/C(Cl)=C(\Cl)C(=O)Nc1ccc(Cl)c(Cl)c1Cl	49.4 µM	
COC12c3ccccc3-c3ccccc3C1[C@H]1C(=O)OC(=O)[C@H]12 (some centres undefined)	> 10 µM	
CC(C)(CC(O)C#N)/[N+]([O-])=[N+](\[O-])C(C)(C)CC(O)C#N (centres undefined)	> 100 µM	
COC(=O)c1nc(-c2ccccc2)oc1S(=O)(=O)n1nc(C)cc1N	> 100 µM	> 100 µM
CN(C)CC1CCCC1=O (centres undefined)	39.5 µM	
COc1ccc(OC)c(Cn2cc3c(c2)-c2oncc2CC3)c1	> 100 µM	3.61 µM
O=C(Nc1cccc(Nc2ncc(Br)c(NCCc3cnc[nH]3)n2)c1)N1CCCC1	34.8 µM	6.63 µM
O=C(/C=C/c1csc(-c2ccccc2)n1)NCc1ccc(C(=O)NCc2ccccc2)cc1	> 100 µM	
O=c1[nH]cnc2c(C3NC(CO)C(O)C3O)c[nH]c12 (centres undefined)	> 100 µM	> 100 µM
O=C(O)COc1c(Cl)cc(Cl)c2cccnc12	> 100 µM	
COc1cc2c(c(OC)c1OC)-c1ccc(SC)c(=O)cc1[C@@H](NC1OC(CO)C(O)C(O)C1O)CC2 (some centres undefined)	> 100 µM	0.0605 µM
CCN1C(=O)N(CC)C2C1NN=c1s/c(=C\c3ccccc3Br)c(=O)n12 (centres undefined)	22.7 µM	0.0544 µM
COc1cc(C2C3=C(COC3=O)Oc3cc4c(cc32)OCO4)cc(OC)c1OC(C)=O (centres undefined)	> 100 µM	
CN1CCN(Cc2ccc(NC(=O)c3[nH]ncc3Nc3ncnc4sc5c(c34)CCCC5)cc2)CC1	1.45 µM	0.317 µM
C=CCOC(=O)C1C2OC3(C(C(=O)OC)=C2C(=O)OC)c2ccccc2CCC13 (centres undefined)	> 10 µM	
OC(c1cc2cc(Cl)c(Cl)cc2c2cc(C(F)(F)F)ccc12)C1CCCCN1 (centres undefined)	3.31 µM	1.71 µM
COc1ccc2c(c1OC)C(=O)OC2C1c2c(c([N+](=O)[O-])c3c(c2OC)OCO3)CCN1C (centres undefined)	> 100 µM	> 100 µM
COc1cc2c(cc1OC)C1(c3ccc(Cl)cc3)ON=C(c3ccccc3)N1CS2 (centres undefined)	> 100 µM	
COc1cc(-c2cc(-c3cc([N+](=O)[O-])c(/C=N/NC(=O)c4ccncc4)o3)ccc2OC)ccc1C	> 100 µM	
CN(C)CCCN1c2ccccc2CCc2ccc([N+](=O)[O-])cc21	48.5 µM	
CC1CN1c1c(C(=O)/C=C/c2ccccc2)c(-c2ccccc2)nn(C)c1=O (centres undefined)	34.7 µM	
